Reference: patent US20260232827A1, “ANTIBODY-DRUG CONJUGATES TARGETING NAPI2B AND METHODS OF USE” (Zymeworks BC Inc., priority 2023, published 2026)

T1: NaPi2b on IGROV-1 cells (Homo sapiens, UniProt O95436)
T1 construct: IGROV-1 cells express endogenous NaPi2b at a high level; endogenous in cells; host or cells: IGROV-1
T1 sequence (O95436 1-690): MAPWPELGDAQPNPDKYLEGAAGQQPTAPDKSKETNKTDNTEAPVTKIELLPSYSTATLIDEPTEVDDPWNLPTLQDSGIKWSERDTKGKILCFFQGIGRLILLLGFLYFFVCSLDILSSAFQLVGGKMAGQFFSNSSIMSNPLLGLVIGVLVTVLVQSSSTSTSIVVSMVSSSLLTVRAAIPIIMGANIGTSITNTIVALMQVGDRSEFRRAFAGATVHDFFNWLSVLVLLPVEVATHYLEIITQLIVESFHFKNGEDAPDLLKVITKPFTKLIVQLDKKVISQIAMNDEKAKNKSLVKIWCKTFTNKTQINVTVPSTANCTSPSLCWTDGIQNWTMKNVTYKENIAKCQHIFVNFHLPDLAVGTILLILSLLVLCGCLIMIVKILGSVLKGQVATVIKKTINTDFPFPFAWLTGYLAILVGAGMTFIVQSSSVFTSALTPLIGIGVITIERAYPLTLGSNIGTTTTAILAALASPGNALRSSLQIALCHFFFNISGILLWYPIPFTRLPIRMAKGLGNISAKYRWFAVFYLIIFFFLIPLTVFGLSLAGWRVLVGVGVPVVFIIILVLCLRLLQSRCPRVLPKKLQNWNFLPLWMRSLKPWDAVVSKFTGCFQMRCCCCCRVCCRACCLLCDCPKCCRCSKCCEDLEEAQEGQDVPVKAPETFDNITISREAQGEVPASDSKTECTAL

B1: v29449 (H4L3) (antibody)
heavy: QVQLVQSGAEVKKPGASVKMSCKASGFTFTSYNVHWVRQAPGQGLEWIAAISPGNGDLSYAQKFQGRATLTVDRSTSTAYMELSSLRSEDTAVYYCARGRTGMGAVDYWGQGTLVTVSS[human IgG1 constant region skipped]
light: DVQMTQSPSSLSASVGDRVTITCRASQDVYSYLNWYQQKPGKAVKLLIYYTSRLQSGVPSRFSGSGSGTDYTLTISSLQPEDIATYYCQQYNIFPWTFGQGTKLEIKRTVAAPSVFIFPPSDEQLKSGTASVVCLLNNFYPREAKVQWKVDNALQSGNSQESVTEQDSKDSTYSLSSTLTLSKADYEKHKVYACEVTHQGLSSPVTKSFNRGEC
B2: v29450 (H3L3) (antibody)
heavy: QVQLVQSGAEVKKPGASVKMSCKASGFTFTSYNVHWVRQAPGQGLEWIAAISPGNGDLSYAQKFQGRATLTVDTSTSTAYMELSSLRSEDTAVYYCARGRTGMGAVDYWGQGTLVTVSS[human IgG1 constant region skipped]
light: DVQMTQSPSSLSASVGDRVTITCRASQDVYSYLNWYQQKPGKAVKLLIYYTSRLQSGVPSRFSGSGSGTDYTLTISSLQPEDIATYYCQQYNIFPWTFGQGTKLEIKRTVAAPSVFIFPPSDEQLKSGTASVVCLLNNFYPREAKVQWKVDNALQSGNSQESVTEQDSKDSTYSLSSTLTLSKADYEKHKVYACEVTHQGLSSPVTKSFNRGEC
B3: v29451 (H2L3) (antibody)
heavy: QVQLVQSGAEVKKPGASVKVSCKASGFTFTSYNVHWVRQAPGQGLEWIAAISPGNGDLSYAQKFQGRVTMTVDTSTSTVYMELSSLRSEDTAVYYCARGRTGMGAVDYWGQGTLVTVSS[human IgG1 constant region skipped]
light: DVQMTQSPSSLSASVGDRVTITCRASQDVYSYLNWYQQKPGKAVKLLIYYTSRLQSGVPSRFSGSGSGTDYTLTISSLQPEDIATYYCQQYNIFPWTFGQGTKLEIKRTVAAPSVFIFPPSDEQLKSGTASVVCLLNNFYPREAKVQWKVDNALQSGNSQESVTEQDSKDSTYSLSSTLTLSKADYEKHKVYACEVTHQGLSSPVTKSFNRGEC
B4: v29457 (H4L1) (antibody)
heavy: QVQLVQSGAEVKKPGASVKMSCKASGFTFTSYNVHWVRQAPGQGLEWIAAISPGNGDLSYAQKFQGRATLTVDRSTSTAYMELSSLRSEDTAVYYCARGRTGMGAVDYWGQGTLVTVSS[human IgG1 constant region skipped]
light: DIQMTQSPSSLSASVGDRVTITCRASQDVYSYLNWYQQKPGKAPKLLIYYTSRLQSGVPSRFSGSGSGTDFTLTISSLQPEDFATYYCQQYNIFPWTFGQGTKLEIKRTVAAPSVFIFPPSDEQLKSGTASVVCLLNNFYPREAKVQWKVDNALQSGNSQESVTEQDSKDSTYSLSSTLTLSKADYEKHKVYACEVTHQGLSSPVTKSFNRGEC
B5: v29458 (H3L1) (antibody)
heavy: QVQLVQSGAEVKKPGASVKMSCKASGFTFTSYNVHWVRQAPGQGLEWIAAISPGNGDLSYAQKFQGRATLTVDTSTSTAYMELSSLRSEDTAVYYCARGRTGMGAVDYWGQGTLVTVSS[human IgG1 constant region skipped]
light: DIQMTQSPSSLSASVGDRVTITCRASQDVYSYLNWYQQKPGKAPKLLIYYTSRLQSGVPSRFSGSGSGTDFTLTISSLQPEDFATYYCQQYNIFPWTFGQGTKLEIKRTVAAPSVFIFPPSDEQLKSGTASVVCLLNNFYPREAKVQWKVDNALQSGNSQESVTEQDSKDSTYSLSSTLTLSKADYEKHKVYACEVTHQGLSSPVTKSFNRGEC
B6: v29459 (H2L1) (antibody)
heavy: QVQLVQSGAEVKKPGASVKVSCKASGFTFTSYNVHWVRQAPGQGLEWIAAISPGNGDLSYAQKFQGRVTMTVDTSTSTVYMELSSLRSEDTAVYYCARGRTGMGAVDYWGQGTLVTVSS[human IgG1 constant region skipped]
light: DIQMTQSPSSLSASVGDRVTITCRASQDVYSYLNWYQQKPGKAPKLLIYYTSRLQSGVPSRFSGSGSGTDFTLTISSLQPEDFATYYCQQYNIFPWTFGQGTKLEIKRTVAAPSVFIFPPSDEQLKSGTASVVCLLNNFYPREAKVQWKVDNALQSGNSQESVTEQDSKDSTYSLSSTLTLSKADYEKHKVYACEVTHQGLSSPVTKSFNRGEC
B7: v29460 (H1L1) (antibody)
heavy: QVQLVQSGAEVKKPGASVKVSCKASGFTFTSYNVHWVRQAPGQGLEWMGAISPGNGDLSYAQKFQGRVTMTRDTSTSTVYMELSSLRSEDTAVYYCARGRTGMGAVDYWGQGTLVTVSS[human IgG1 constant region skipped]
light: DIQMTQSPSSLSASVGDRVTITCRASQDVYSYLNWYQQKPGKAPKLLIYYTSRLQSGVPSRFSGSGSGTDFTLTISSLQPEDFATYYCQQYNIFPWTFGQGTKLEIKRTVAAPSVFIFPPSDEQLKSGTASVVCLLNNFYPREAKVQWKVDNALQSGNSQESVTEQDSKDSTYSLSSTLTLSKADYEKHKVYACEVTHQGLSSPVTKSFNRGEC

The molecules below were run against T1, NaPi2b on IGROV-1 cells (assay: Cellular binding by flow cytometry). Conditions: 24 hours at 4° C.
Procedure: IGROV-1 cells express endogenous NaPi2b at a high level.
Briefly, cells were seeded at 50,000 cells/well in conical-bottom 96-well plates and treated with test antibody for 24 hours at 4° C. to prevent internalization. […] Following incubation and washing, fluorescence was detected by flow cytometry on a BD LSRFortessa™ Cell Analyzer (BD Biosciences, Franklin Lake, NJ) with 1,000 minimum events collected per well.
(§1) Cells were maintained under standard culture conditions (37° C./5% CO2) until assay set-up; IGROV-1 cells were cultured in RPMI 1640, ATCC modification (Thermo Fisher Scientific, Waltham, MA) supplemented with 10% fetal bovine serum (Thermo Fisher Scientific, Waltham, MA); OVCAR-3 cells were cultured in RPMI 1640, ATCC modification (Thermo Fisher Scientific, Waltham, MA) supplemented with 20% fetal bovine serum (Thermo Fisher Scientific, Waltham, MA), and 0.01 μg/mL human insulin (Sigma-Aldrich, Oakville, Canada); Cells were removed from culture vessels using Cell Dissociation Buffer (Invitrogen, Waltham, MA), seeded at 50,000 cells/well in conical-bottom 96-well plates, and treated with test antibody or antibody-drug conjugate for 24 hours at 4° C. to prevent internalization. […] Following incubation and washing, fluorescence was detected by flow cytometry on a BD LSRFortessa™ Cell Analyzer (BD Biosciences, Franklin Lake, NJ) with 1,000 minimum events collected per well.
as §1, with “set-up. IGROV-1, HCC-78, H441 and EBC-1” for “set-up; IGROV-1”, “MA).” for “MA); OVCAR-3 cells were cultured in RPMI 1640, ATCC modification (Thermo Fisher Scientific, Waltham, MA) supplemented with 20% fetal bovine serum (Thermo Fisher Scientific, Waltham, MA), and 0.01 μg/mL human insulin (Sigma-Aldrich, Oakville, Canada);”

Row | Molecule | Bmax IGROV-1 | Curve Hill Slope (h) IGROV-1
1 | B1 | 44,460 | 1.3
2 | B2 | 43,809 | 1.2
3 | B3 | 46,170 | 1.1
4 | B4 | 44,539 | 1.0
5 | B5 | 40,793 | 1.1
6 | B6 | 40,941 | 1.2
7 | B7 | 40,071 | 1.2
